{"source": "paper PMC6919601", "about": "“Identification of Plasmodium dipeptidyl aminopeptidase allosteric inhibitors by high throughput screening” (PLoS ONE, 2019)", "note": "Hit rate of the full screen: of about 110,000 compounds, about 230 (0.21%) showed an effect of 50% or more. The list shows a part of the results.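 Further: 30 min substrate incubation versus DMSO and 10 µM JCP410 controls.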"}
{"biological_target": "DPAP1 (Plasmodium falciparum, UniProt Q8IIJ9)", "sequence (Q8IIJ9 whole entry, looked up)": "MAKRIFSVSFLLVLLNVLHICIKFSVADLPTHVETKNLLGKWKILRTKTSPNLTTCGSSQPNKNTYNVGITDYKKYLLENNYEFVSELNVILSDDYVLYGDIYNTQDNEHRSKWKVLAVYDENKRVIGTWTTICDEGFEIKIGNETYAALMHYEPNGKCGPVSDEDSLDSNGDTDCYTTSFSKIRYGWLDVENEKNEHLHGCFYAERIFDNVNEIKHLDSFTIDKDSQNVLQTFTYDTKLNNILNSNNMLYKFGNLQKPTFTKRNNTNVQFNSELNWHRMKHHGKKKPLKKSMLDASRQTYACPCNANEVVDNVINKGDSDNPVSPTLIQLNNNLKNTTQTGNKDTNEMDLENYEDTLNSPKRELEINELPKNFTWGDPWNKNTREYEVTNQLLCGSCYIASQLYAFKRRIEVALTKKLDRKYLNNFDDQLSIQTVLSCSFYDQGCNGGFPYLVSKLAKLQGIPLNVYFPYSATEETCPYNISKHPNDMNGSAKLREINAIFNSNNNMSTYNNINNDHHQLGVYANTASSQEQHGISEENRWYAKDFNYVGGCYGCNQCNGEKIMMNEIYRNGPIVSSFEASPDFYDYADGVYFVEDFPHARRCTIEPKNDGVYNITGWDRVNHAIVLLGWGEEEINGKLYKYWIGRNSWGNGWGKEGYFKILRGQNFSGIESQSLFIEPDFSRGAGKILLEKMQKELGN", "test": "primary screen, percent inhibition; read by cleavage of a fluorogenic dipeptide substrate; higher = more effect of the substance", "parameters": "species or system P. falciparum D10 trophozoite lysates; single well", "units": {"% Inhibition @ 10 uM": "%"}}
{"smiles": "N#Cc1ccccc1N/C=C/C(=O)c1ccc(Cl)cc1", "% Inhibition @ 10 uM": 5.83}
{"smiles": "COc1cc(C(=O)Nc2ccc(F)c(F)c2)ccc1OC(F)F", "% Inhibition @ 10 uM": 1.59}
{"smiles": "CCCNC(=O)Cn1nc(CC)n2c(cc3c(OC)cccc32)c1=O", "% Inhibition @ 10 uM": -1.7}
{"smiles": "COc1ccc(S(=O)(=O)N(CC(=O)Nc2ccc3c(c2)OCCO3)Cc2ccccc2)cc1", "% Inhibition @ 10 uM": -2.28}
{"smiles": "COc1ccc(CN2CCN(C(=O)c3cccc(F)c3)CC2)c(OC)c1OC", "% Inhibition @ 10 uM": -4.02}
{"smiles": "Cc1cc(C(F)F)n2nc(C(=O)Nc3ccc(C(=O)N4CCOCC4)cc3)nc2n1", "% Inhibition @ 10 uM": -6.79}
{"smiles": "N#C/C(=C\\c1ccc(O)cc1)c1nc(-c2ccc(F)cc2)cs1", "% Inhibition @ 10 uM": 9.96}
{"smiles": "CC(C)C[C@H](NC(=O)c1ccc(I)cc1)C(=O)NCC#N", "% Inhibition @ 10 uM": -1.82}
{"smiles": "CCOC(=O)C1=C(CC)OC(N)=C(C#N)C1c1cccnc1", "note": "(stereo not drawn)", "% Inhibition @ 10 uM": 0.317}
{"smiles": "CC1=C(C(N)=O)C(c2ccccc2Cl)n2nc(-c3ccncc3)nc2N1", "note": "(stereo not drawn)", "% Inhibition @ 10 uM": -3.28}
{"smiles": "COc1ccccc1CNC(=O)C(C)n1nc(C)n2c(cc3sccc32)c1=O", "note": "(stereo not drawn)", "% Inhibition @ 10 uM": -1.58}
{"smiles": "COc1nc(N(C)C)nc(N(C)C)n1", "% Inhibition @ 10 uM": 1.48}
{"smiles": "O=C1CCOc2cc(OCc3ccccc3)ccc21", "% Inhibition @ 10 uM": -2.09}
{"smiles": "O=S(=O)(NCc1ccc2c(c1)OCO2)c1ccc(F)c(Cl)c1", "% Inhibition @ 10 uM": 6.01}
{"smiles": "COc1cc(OC)cc(-c2nc3n(n2)C(c2ccncc2)C2=C(O)CC(C)(C)CC2=N3)c1", "note": "(stereo not drawn)", "% Inhibition @ 10 uM": 6.7}
{"smiles": "CC(=O)Nc1ncc2c(n1)CC(c1ccc(Cl)cc1)CC2=O", "note": "(stereo not drawn)", "% Inhibition @ 10 uM": 7.98}
{"smiles": "COc1ccc(OC)c(C2CC(=O)C3=C(C2)NC(=O)CC3c2ccccc2OC)c1", "note": "(stereo not drawn)", "% Inhibition @ 10 uM": -4.16}
{"smiles": "O=C(CSc1nncn1C(=O)/C=C/c1ccccc1)c1ccccc1", "% Inhibition @ 10 uM": 2.7}
{"smiles": "O=C(O)CCCC(=O)Nc1ccc(N2C(=O)C3C4CCC(C4)C3C2=O)cc1", "note": "(stereo not drawn)", "% Inhibition @ 10 uM": -2.88}
{"smiles": "Cc1ccc(Cl)cc1NC(=O)C1CC=CCC1C(=O)O", "note": "(stereo not drawn)", "% Inhibition @ 10 uM": -0.171}
{"smiles": "Cc1cc2ncn(C(=O)c3c(-c4ccccc4)noc3C)c2cc1C", "% Inhibition @ 10 uM": 6.82}
{"smiles": "O=S(=O)(NCCCSC1CCCCC1)c1ccc(Br)cc1", "% Inhibition @ 10 uM": 2.05}
{"smiles": "CC(C)c1ccc(N(CC(=O)N2CCN(c3ccccc3F)CC2)S(C)(=O)=O)cc1", "% Inhibition @ 10 uM": -4.43}
{"smiles": "Cc1ccc2c(c1)cc1c(=O)n(CC(=O)NCCc3ccc(Cl)cc3)nc(C)n12", "% Inhibition @ 10 uM": 0.0198}
{"smiles": "Cc1c(C(=O)N2CC(C)OC(C)C2)sc2nc(-c3ccc(F)cc3)cn12", "note": "(stereo not drawn)", "% Inhibition @ 10 uM": -5.58}
{"smiles": "CC1CCN(S(=O)(=O)N2CCC(C(=O)NCc3ccc(F)cc3Cl)CC2)CC1", "% Inhibition @ 10 uM": -1.34}
{"smiles": "O=C(Nc1cccc2cccnc12)c1cccc([N+](=O)[O-])c1", "% Inhibition @ 10 uM": -2.63}
{"smiles": "COc1ccc(CCNC(=O)CCc2c(C)nc3c4c(C)cc(C)nc4nn3c2C)c(OC)c1", "% Inhibition @ 10 uM": 0.66}
{"smiles": "O=C(O)c1ccn(COc2ccc(Br)cc2)n1", "% Inhibition @ 10 uM": 3.36}
{"smiles": "CC(CN)Nc1ccc([N+](=O)[O-])cc1", "note": "(stereo not drawn)", "% Inhibition @ 10 uM": 2.76}
{"smiles": "COc1cc(OC)cc(C(=O)Nc2nc(-c3nnn(-c4ccccc4C(F)(F)F)c3C)ns2)c1", "% Inhibition @ 10 uM": -4.71}
{"smiles": "COc1ccc(C(=O)N(C)Cc2ccccc2)cc1Br", "% Inhibition @ 10 uM": -5.21}
{"smiles": "Cc1cccc(OCCc2c(C)n[nH]c2C)c1", "% Inhibition @ 10 uM": -4.69}
{"smiles": "Cc1cc(C)c(C#N)c(S(=O)Cc2ccc(Cl)cc2)n1", "note": "(stereo not drawn)", "% Inhibition @ 10 uM": -3.06}
{"smiles": "CC(=C1C(=O)c2ccccc2C1=O)N1CCc2ccccc2C1", "% Inhibition @ 10 uM": -0.169}
{"smiles": "COc1ccc(CCNC(=O)CCS(=O)(=O)Cc2ccc(Cl)cc2)cc1OC", "% Inhibition @ 10 uM": 6.32}
{"smiles": "COc1ccccc1N1C(=O)C2C(C)NC3(C(=O)N(C/C=C\\c4ccccc4)c4ccccc43)C2C1=O", "note": "(stereo not drawn)", "% Inhibition @ 10 uM": -5.27}
{"smiles": "CCOC(=O)c1ccc(-n2c(CCC(=O)O)ccc2-c2cccs2)cc1O", "% Inhibition @ 10 uM": 0.413}
{"smiles": "CSc1ccc(CN2CCN(C=O)CC2)cc1", "% Inhibition @ 10 uM": 1.9}
{"smiles": "COc1cc(C2N3CC4(C)CN2CC(C)(C3)C4)ccc1O", "note": "(stereo not drawn)", "% Inhibition @ 10 uM": -1.82}
{"smiles": "COc1ccc(OC)c(CCNc2nc3cc(OC)c(OC)cc3c3nc(-c4ccccc4)nn23)c1", "% Inhibition @ 10 uM": -0.692}
{"smiles": "NC(=O)c1ccc(NC(=O)c2ccc([N+](=O)[O-])cc2)cc1", "% Inhibition @ 10 uM": -4.87}
{"smiles": "CCOC(=O)/C(C#N)=C/c1ccc(O)c([N+](=O)[O-])c1", "% Inhibition @ 10 uM": 10.7}
{"smiles": "CC(C)c1ccc(CN2CCOCC2)cc1", "% Inhibition @ 10 uM": 4.8}
{"smiles": "COc1cc2nc(NC3CCCCC3)n3nc(-c4ccccc4)nc3c2cc1OC", "% Inhibition @ 10 uM": -6.07}
{"smiles": "Cc1cc(=O)oc2ccc(NC(=O)C(CCCN=C(N)N)NC(=O)C3(NC(=O)c4ccc(-c5csc(N6CCN(C)CC6)n5)cc4)CCCCC3)cc12", "note": "(stereo not drawn)", "% Inhibition @ 10 uM": 4.63}
{"smiles": "COc1ccc(/C=N\\n2nnc3ccccc32)cc1", "% Inhibition @ 10 uM": 3.81}
{"smiles": "COc1ccc(/C=C2\\C(=N)N3N=C(N4CCOCC4)SC3=NC2=O)cc1", "% Inhibition @ 10 uM": -7.18}
{"smiles": "CCC(=O)N(Cc1ccc2c(c1)OCO2)C1CC(=O)N(c2ccc(Br)cc2)C1=O", "note": "(stereo not drawn)", "% Inhibition @ 10 uM": 0.231}
{"smiles": "O=C(COc1ccc2ccccc2c1)Nc1ccc(S(=O)(=O)N2CCCC2)cc1", "% Inhibition @ 10 uM": -0.366}
{"smiles": "Cc1c(Cl)cccc1NC(=O)CN(c1cccc(F)c1)S(C)(=O)=O", "% Inhibition @ 10 uM": 1.02}
{"smiles": "CC1CC(C)CN(C(=O)CCCOc2ccc(Cl)cc2Cl)C1", "note": "(stereo not drawn)", "% Inhibition @ 10 uM": 0.215}
{"smiles": "O=C(Nc1ncc2c(n1)CC(c1ccco1)CC2=O)c1ccccc1", "note": "(stereo not drawn)", "% Inhibition @ 10 uM": -4.76}
{"smiles": "Cc1c(C(=O)NC2CCCC2)cccc1[N+](=O)[O-]", "% Inhibition @ 10 uM": 0.311}
{"smiles": "CCOC(=O)c1c(-c2ccc(Br)cc2)csc1NC(=O)c1sc(C)nc1C", "% Inhibition @ 10 uM": 4}
{"smiles": "O=C(NCCc1c[nH]c2ccccc12)C1CCN(c2ccc(N3CCOCC3)nn2)CC1", "% Inhibition @ 10 uM": 1.91}
{"smiles": "Cc1ccc(NC(=O)/C=C/c2ccc3c(c2)OCO3)c(C)c1", "% Inhibition @ 10 uM": -5.32}
{"smiles": "O=C(O)c1nccnc1C(=O)Nc1ccc(Cl)cc1Cl", "% Inhibition @ 10 uM": 1.29}
{"smiles": "CCCCNC(=O)CSc1nc(NCC2CCCO2)c2ccccc2n1", "note": "(stereo not drawn)", "% Inhibition @ 10 uM": -0.801}
{"smiles": "CCOc1ccc(C2C(C(=O)c3ccc(F)cc3)=C(O)C(=O)N2CC2CCCO2)cc1OC", "note": "(stereo not drawn)", "% Inhibition @ 10 uM": -13.5}
{"smiles": "COc1ccc(C)cc1NC(=O)c1ccc(Br)cc1", "% Inhibition @ 10 uM": 1.39}
{"smiles": "O=C1/C(=C/c2ccc(O)c(O)c2)Sc2ccccc21", "% Inhibition @ 10 uM": 22}
{"smiles": "CCN1CCCC1CNC(=O)CN1C(=O)CSc2nc(C)cc(C)c21", "note": "(stereo not drawn)", "% Inhibition @ 10 uM": -6.01}
